# Reference: article PMC10668032
# The list shows a part of the results. At the low end of the ranking, values are background and their order means little.
# Molecular target: SIX1-Q177R homeodomain (UniProt Q15475)
# Experiment: universal protein binding microarray
# Conditions: Universal all-10-mer PBM (8x60K, AMADID 030236), 300 nM GST-tagged protein, Alexa Fluor 488 anti-GST; buffer, salt, pH and temperature not stated; high values mean tight binding; most listed sequences are background and not binding sites; double strand, one strand shown
row,Sequence,binding signal
1,ATGAAACG,-0.128 E-score
2,GAGGAATA,0.0895 E-score
3,AGAAGGTG,0.302 E-score
4,ATAGGGTG,0.156 E-score
5,ATAGCGGG,0.0254 E-score
6,GGCGGTAA,-0.0722 E-score
7,ATATAACG,-0.00936 E-score
8,GCGACCAA,-0.151 E-score
9,ACGTCAAC,-0.122 E-score
10,AGCGAACG,-0.145 E-score
11,GGATCCGA,0.217 E-score
12,CATCCTAC,-0.0542 E-score
13,CACAGCGG,0.134 E-score
14,AAGTGCAT,0.0506 E-score
15,AATAAGAA,-0.236 E-score
16,AACGCAGC,-0.206 E-score
17,AGAGGAGC,-0.183 E-score
18,CGAGCCCG,-0.0428 E-score
19,CCCTGCAG,0.185 E-score
20,ATGACGAA,-0.113 E-score
21,CCGAACAC,0.424 E-score
22,CCCCAGAC,-0.0271 E-score

row,Sequence,binding signal
1,ACGCGAAA,-0.127 E-score
2,AGGGGGAA,0.0648 E-score
3,CCGAGGCA,0.0854 E-score
4,AATAAAAT,-0.2 E-score
5,CGAACCCA,0.0995 E-score
6,GTACTTAA,0.0231 E-score
7,GATTTTCC,-0.254 E-score
8,CGTCGGTC,-0.0956 E-score
9,TCCTGTAA,-0.0539 E-score
10,CCTTGGCG,0.142 E-score
11,CCCACACC,0.39 E-score
12,ACGCATGC,-0.0268 E-score
13,GCCATGAA,-0.169 E-score
14,GACCTAGA,-0.197 E-score
15,AATCAACG,-0.206 E-score
16,CAATACGC,-0.164 E-score
17,CCCTATTA,0.0143 E-score
18,ATTGGTAG,-0.161 E-score
19,CGCGGAAC,0.181 E-score
20,ACTGTCTA,-0.122 E-score
21,AGCACATA,-0.143 E-score
22,CGCCTGGA,-0.0463 E-score

row,Sequence,binding signal
1,CGAAACCC,0.16 E-score
2,AAGGGCTA,-0.166 E-score
3,CTCACGCA,-0.0186 E-score
4,CGAAGACC,0.0795 E-score
5,AAGCCATT,-0.204 E-score
6,TCACCTAA,-0.0387 E-score
7,GCCCGAAA,-0.0508 E-score
8,CCAAAGCA,-0.0258 E-score
9,ATTAAGAC,-0.172 E-score
10,TCAATAGA,-0.222 E-score
11,AGAAAGAA,-0.146 E-score
12,CACCGCAG,0.241 E-score
13,ATGTAGGG,0.0154 E-score
14,ACGCAGAC,-0.0606 E-score
15,ACGATACC,0.357 E-score
16,AGATCCGG,-0.0104 E-score
17,CGCCTAAC,-0.0718 E-score
18,AGCTGCTA,-0.0646 E-score
19,AAACAAGT,-0.223 E-score
20,GATGCACC,0.126 E-score
21,AAAGGATC,0.0283 E-score
22,CTTTGCGA,0.063 E-score

row,Sequence,binding signal
1,GAGCTAAC,-0.157 E-score
2,CGGAGAGC,-0.154 E-score
3,CGCCGCGC,-0.0027 E-score
4,CGATCGCG,-0.179 E-score
5,GAGGCAAC,-0.125 E-score
6,GCGACGTA,-0.0555 E-score
7,ATAAAAGG,-0.0509 E-score
8,ACTGGAGG,0.00645 E-score
9,AGGAAACA,0.115 E-score
10,CAGATGAG,-0.0192 E-score
11,ACATCAGC,-0.23 E-score
12,AAAAAATC,-0.124 E-score
13,CCATGAAG,0.015 E-score
14,CGACCTCG,0.137 E-score
15,ACTGTTTA,-0.13 E-score
16,CTACTAGA,0.00643 E-score
17,ACCAGGCA,0.151 E-score
18,TCATCCCA,-0.129 E-score
19,CAAAAGTC,-0.232 E-score
20,ATCGCAGG,-0.0803 E-score
